Measurements reported in PubChem BioAssay (NCI).
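The compound was tested at five concentrations on cells cultured in 96-well plates, with a 48-hour exposure period. GI50 marks 50% less growth. TGI is the concentration that stops growth completely.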 Peptide text beside a SMILES is read from it.

System: NCI-H322M lung
Test: inhibition of tumour cell growth, NCI panel, 48 h

Compound	GI50	TGI
COc1ccc(-c2nnc(SCc3ccc(O)c4ncccc34)n2-c2ccccc2)cc1	955 nM	> 63100 nM
C=C(C)[C@@H]1CC[C@]2(COC)CC[C@]3(C)[C@H](CC[C@@H]4[C@@]5(C)CCCNC(C)(C)[C@@H]5CC[C@]43C)[C@@H]12	1590 nM	2950 nM
CC[C@@](C)(NC(=O)C(C)(C)NC(=O)[C@@H](NC(=O)[C@@H]1CCCN1C(=O)C(C)(C)NC(=O)[C@H](CC(C)C)NC(=O)CNC(=O)C(C)(C)NC(=O)[C@@H](NC(=O)C(C)(C)NC(=O)[C@H](CCC(N)=O)NC(=O)[C@H](C)NC(=O)C(C)(C)NC(=O)[C@H](C)NC(=O)C(C)(C)NC(=O)[C@H](C)NC(=O)C(C)(C)NC(C)=O)C(C)C)C(C)C)C(=O)N[C@@H](CCC(N)=O)C(=O)N[C@@H](CCC(N)=O)C(=O)N[C@H](CO)CC1CCCCC1 (HELM PEPTIDE1{[ac].[Aib].A.[Aib].A.[Aib].A.Q.[Aib].V.[Aib].G.L.[Aib].P.V.[Aib].[CC[C@@](C)(N[*:1])C(=O)[*:2]].Q.Q.[OC[C@H](CC1CCCCC1)N[*:1]]}$$$$V2.0)	2080 nM	> 5000 nM
O=[N+]([O-])c1ccc(-c2nnc(SCc3ccc(O)c4ncccc34)o2)cc1	1180 nM	> 100000 nM
COc1cc(NC2=C(Cl)C(=O)c3nc(C)ccc3C2=O)cc(OC)c1	3420 nM	12800 nM
